Whole data set: some 5,400 compounds, median “IFI” near 2, cut for the highest 2% near 22. The list shows a part of the results.
Assay: NOVARTIS: Inhibition Frequency Index (IFI) - the number of HTS assays where a compound showed > 50% inhibition/induction, expressed as a percentage of the number of assays in which the compound was tested.
Type: functional

| Compound | IFI [%] |
| --- | --- |
| O=C1N(Cc2cc3ccccc3s2)CC2CN(Cc3ccoc3)CCN12 (configuration not stated) | 1.41 |
| CCOc1ccccc1CN1CCCC(C(=O)N2CCCCCC2)C1 (configuration not stated) | 0 |
| COc1cc(OC)cc(C(=O)N(C)CCCNc2ccnc3cc(Cl)ccc23)c1 | 1.87 |
| CC1CCN(C2=C(NC3CCCC3)C(=O)c3ccccc3C2=O)CC1 | 14.3 |
| COC(=O)C1=C(C)NC2=C(C(=O)CC(c3ccc(OC)c(OC)c3)C2)C1c1ccccc1Br (configuration not stated) | 4.82 |
| CCOC(=O)c1ccc(N2CCN(c3cc(C)ccc3C)CC2)c(NC(=O)Nc2ccc(Cl)cc2)c1 | 0 |
| O=C1N(Cc2cc3ccccc3s2)CC2CN(Cc3ccsc3)CCN12 (configuration not stated) | 1.39 |
| Cc1ccc(NC(=O)C2c3ccccc3C(=O)N(CC(C)C)C2c2cccs2)c(Cl)c1 (configuration not stated) | 3.23 |
| CC(C)CN(C(C(=O)NC(CN1CCCC1)c1ccccc1)c1ccccc1)S(=O)(=O)c1ccccn1 (configuration not stated) | 1.96 |
| CC1=C(CO)C(=O)O[C@@H]([C@@H](C)[C@H]2CC[C@H]3[C@@H]4C[C@H]5O[C@]56[C@@H](O)C=CC(=O)[C@]6(C)C4CC[C@]23C)C1 (some centres not stated) | 32.1 |
| CCOC(=O)C1CCN(C(c2cc3cc(OC)c(OC)cc3[nH]c2=O)c2nnnn2C(C)(C)C)CC1 (configuration not stated) | 5.21 |
| C=CCn1cc(C=NNc2nc3ccccc3[nH]2)c2ccccc21 | 15.4 |
| COc1ccc2ccccc2c1C1CC(=O)N2CN(Cc3ccco3)CSC2=C1C#N (configuration not stated) | 0 |
| CCOC(=O)c1c(C)[nH]c2c1cc(O)c1ccccc12 | 3.11 |
| COc1cccc(-c2ccc(O)c(CN(C)C3CCCCC3)c2)n1 | 2.63 |
| N#Cc1c(N)nc2sc(C(=O)Nc3ccc(Br)cc3)c(N)c2c1-c1ccccc1 | 1.51 |
| CCC(CC)CN1CCC(O)(c2ccc3oc(C(=O)Nc4ccc5c(c4)OCO5)cc3c2)CC1 | 3.48 |
| COc1ccc(C)cc1-n1c(-c2ccc(Cl)cc2)cc2c1CC(C)(C)CC2=O | 0 |
| S=C(NN=CC=NNC(=S)Nc1ccccc1)Nc1ccccc1 | 14.3 |
| CC(=O)OCC(=O)[C@@]1(O)CCC2C3CCC4=CC(=O)CC[C@]4(C)C3[C@@H](O)C[C@@]21C (some centres not stated) | 0.769 |
| O=C1CN(C(=O)CCC2CCCC2)C(c2ccc(F)cc2)c2cc(Cl)ccc2N1 (configuration not stated) | 2.94 |

| Compound | IFI [%] |
| --- | --- |
| CC(=O)Nc1ccc(NS(=O)(=O)c2cc([N+](=O)[O-])ccc2Cl)cc1 | 0 |
| O=C(c1ccc2c(c1)OCO2)N1CCOC(c2ccc(Cl)cc2)C1 (configuration not stated) | 1.37 |
| CC[n+]1c(/C=C/C=C2\N(C)c3ccccc3C2(C)C)n(Cc2ccccc2)c2ccccc21 | 32.6 |
| OCC[n+]1c2ccccc2nc2ccc(N3CCOCC3)cc21 | 0 |
| CC1(C)CC(=O)C(=CNc2nc3c(s2)CCc2c-3cnn2-c2ccccc2)C(=O)C1 | 0 |
| S=P(OCC1C(COP(=S)(c2ccccc2)c2ccccc2)C1(Cl)Cl)(c1ccccc1)c1ccccc1 (configuration not stated) | 2.78 |
| OCCNc1nc(Nc2ccccc2O)nc2ccccc12 | 0 |
| COc1cc2cc(C(=O)Nc3ccccc3)c(N)nc2cc1OC | 4.48 |
| Cn1cnc(S(=O)(=O)Nc2ccccc2C(=O)NCC2CC2)c1 | 3.36 |
| COC(=O)c1ccccc1NC(=O)COc1cccc(OC)c1 | 0 |
| CC(C)CCNc1ncc(C(=O)NCC(C)C)c(NCCc2ccccc2)n1 | 2.91 |
| COc1ccc2nc(Nc3nc(-c4ccccn4)cs3)sc2c1 | 14.3 |
| COc1ccc(C(=O)N2C(C(=O)Nc3ccc(C)cc3)CSC2c2ccc(C(C)(C)C)cc2)cc1 (configuration not stated) | 2.2 |
| Cc1ccc(C)n1-c1ccc(C(=O)N2CCC(C)CC2)cc1 | 0 |
| CCOC(=O)C(C)Oc1cccc2c(=O)n(CC(=O)Nc3ccc(OC(F)(F)F)cc3)ccc12 (configuration not stated) | 0 |
| COc1ccc(C2=C(c3ccc(OC)cc3)C3(c4ccccc4)C(=O)C2(c2ccccc2)C2C(=O)N(c4ccc(C)cc4)C(=O)C23)cc1 (configuration not stated) | 0 |
| CN(C)CCN1CCN(c2cncc(-c3cccnc3)n2)CC1 | 0 |
| CCN1/C(=C/c2ccc3cc(C)ccc3[n+]2C)Sc2ccc3ccsc3c21 | 10.6 |
| S=C(NN=Cc1ccccn1)NC1CC2CC1C1C=CCC21 (configuration not stated) | 32.5 |
| O=C(NCc1ccccc1)c1cnc(NCCC(c2ccccc2)c2ccccc2)nc1NC1CC1 | 5.83 |
| CCCCN(C(=O)CCC(=O)Nc1cc(C)on1)C(C(=O)NC1CCCC1)c1ccc(C)o1 (configuration not stated) | 1.82 |

| Compound | IFI [%] |
| --- | --- |
| CCCNc1nc(OC(C(F)(F)F)C(F)(F)F)nc(OC(C(F)(F)F)C(F)(F)F)n1 | 0 |
| COc1ccc(S(=O)(=O)NCC2CCC(C(=O)NCC(OC)OC)CC2)cc1 (configuration not stated) | 2.17 |
| Cc1ccc(Cl)cc1-n1c(SCc2ccccc2)nnc1C(Cc1ccccc1)NC(=O)C12CC3CC(CC(C3)C1)C2 (configuration not stated) | 4.54 |
| CSc1cccc(NC(=O)C2C3C=CC4(O3)C2C(=O)N(C2CC2)C4C(=O)NC2CCCCC2)c1 (configuration not stated) | 0 |
| Cn1nccc1C(OCC(=O)N1CCOCC1)c1ccc(F)cc1 (configuration not stated) | 1.96 |
| COC(=O)c1c(NC(=O)c2cc3ccccc3oc2=O)sc2c1CCC(C)C2 (configuration not stated) | 0 |
| CC(C)CN1C(=O)N(CCCc2cccnc2)C(=O)C12CCN(C1CCOCC1)CC2 | 6.33 |
| O=C(CSc1nccn1C1CCCC1)Nc1cc(C(F)(F)F)ccc1Cl | 0 |
| CCOC(=O)C1=C(C)NC2=C(C(=O)CC(C)(C)C2)C1c1ccccn1 (configuration not stated) | 2.3 |
| CC(C)(C)NS(=O)(=O)c1cc(Cl)ccc1Cl | 0 |
| COc1ccc(-c2csc(Nc3cccc(Cl)c3C)n2)cc1OC | 0 |
| N#C/C(=C\c1cc2ccccc2nc1Cl)c1nc(-c2ccc(Cl)c(Cl)c2)cs1 | 0 |
| Cn1c2ccncc2c2cc([N+](=O)[O-])ccc21 | 7.69 |
| Cc1ccc(S(=O)(=O)Oc2ccc(C=NN=C(N)N)cc2)cc1 | 0 |
| COCCNC(=O)[C@@H]1C[C@@H](NCCC2=C(C)CCCC2(C)C)CN1C(C)C | 1.92 |
| N#CCSc1nc2ccccc2c2nc(CCc3c[nH]c4ccccc34)nn12 | 0 |
| N#C/C(=C\n1cc(Cc2ccc(Cl)cc2Cl)c2ccccc21)c1nn(CCO)c(N)c1C#N | 0 |
| CC(=O)Nc1ccc(S(=O)(=O)Nc2ccccc2[N+](=O)[O-])cc1 | 0 |
| COc1ccc(-c2cc(C(F)(F)F)n3nc(C(=O)NC4CCCCC4)c(Cl)c3n2)cc1OC | 1.22 |
| Cc1ccc(N=C2NC(=O)/C(=C\c3ccc(N(C)C)cc3)S2)cc1 | 0 |
